The assay has as its target T1, IL-2Rβ IH-Biotin (biotin-labeled human IL-2Rβ, UniProt P14784 aa27-240, with C-terminal avi tag and His6 tag) (human) (UniProt P14784).
T1 sequence: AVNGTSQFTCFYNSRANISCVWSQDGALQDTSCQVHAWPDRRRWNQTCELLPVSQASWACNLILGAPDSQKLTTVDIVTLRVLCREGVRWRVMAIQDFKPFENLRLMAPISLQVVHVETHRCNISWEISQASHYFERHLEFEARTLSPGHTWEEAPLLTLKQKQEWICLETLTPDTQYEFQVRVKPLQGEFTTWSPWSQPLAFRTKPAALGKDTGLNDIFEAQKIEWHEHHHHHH
Briefly: ForteBio BLI, biotinylated receptor on SA sensor, 100 nM IL-2-FC in solution, 1:1 model (avidity).

pKd: −log10 of the molar value.

Broadly, the pKd is the Kd on a negative log10 scale, so that one unit is a factor of ten. A higher pKd goes with a small Kd.

Turning to “IL-2^WT-FC fusion protein (IL-2^WT-2*(G4S)-FcLALA) (chain not printed) (Fc fusion; biotin on the avi tag (enzymatic labeling with BirA); other documents disagree on this pair)”, the pKd was 7.39.

Source of the values: US20230174604A1.
